Drawing on the antibiotic and cytotoxicity screens of Wong et al. (2023), this text covers cytotoxicity call and growth inhibition call for ten compounds.

The subject of test [1] is HSkMC (human skeletal muscle cells). The experiment in a line: cytotoxicity call (relative viability < 0.9). To be noted: 10 µM.
In test [2] the test system is HepG2. The experiment in a line: cytotoxicity call (relative viability < 0.9). To be noted: 10 µM.
In test [3] the test system is S. aureus RN4220. In words: growth inhibition call (relative growth <= 0.2). To be noted: 50 µM.

This is one part of the list.

Consider `C[C@H]1CN([C@@H](C)CO)C(=O)c2c(c3ccccc3n2C)-c2ccccc2CO[C@H]1CN(C)C(=O)NC1CCCCC1`, for which the cytotoxicity call in test [1] and in test [2] was “inactive” throughout. For the same compound, the growth inhibition call in test [3] was “inactive”.
`C[C@H](CO)N1C[C@H](C)[C@@H](CN(C)S(C)(=O)=O)Oc2ccc(NC(=O)C3CCCCC3)cc2CC1=O`: the cytotoxicity call in test [1] and in test [2] was “inactive” throughout. Also, in test [3], the growth inhibition call is “inactive”.
Consider `C[C@H]1CCCCO[C@@H](CN(C)Cc2ccc(C(=O)O)cc2)[C@@H](C)CN([C@@H](C)CO)C(=O)c2cc(NC(=O)NC3CCCCC3)ccc2O1`, for which the cytotoxicity call in test [1] and in test [2] was “inactive” each time. The growth inhibition call in test [3] is “inactive”.
For the compound `C[C@@H]1CN([C@H](C)CO)C(=O)Cc2cc(NC(=O)Nc3ccc4c(c3)OCO4)ccc2O[C@H]1CN(C)C(=O)Nc1cccc2ccccc12`, the cytotoxicity call in test [1] and in test [2] was “inactive” each time. Further, the growth inhibition call in test [3] was “inactive”.
Consider `Cc1cc(C(=O)Nc2cccc3c2O[C@@H](CN(C)S(=O)(=O)c2ccc(F)cc2)[C@H](C)CN([C@@H](C)CO)C3=O)n(C)n1`, for which the cytotoxicity call in test [1] and in test [2] was “inactive” each time. The growth inhibition call in test [3] was “inactive”.
As for `C[C@@H]1CN([C@H](C)CO)C(=O)c2c(c3ccccc3n2C)-c2ccccc2CO[C@@H]1CN(C)C(=O)[C@H](C)c1ccccc1`, the cytotoxicity call in test [1] was “active”. For the same compound, the cytotoxicity call in test [2] was “inactive”. In addition, the growth inhibition call in test [3] is “inactive”.
As to `C[C@H](CO)N1C[C@H](C)[C@H](CN(C)C(=O)CCC(F)(F)F)OCCCC[C@H](C)Oc2ccc(NS(=O)(=O)c3ccccc3)cc2C1=O`, the cytotoxicity call in test [1] and in test [2] was “inactive” in each case. The growth inhibition call in test [3] is “inactive”.
`CNC[C@H]1Oc2ccc(NC(=O)Cn3cnnn3)cc2CC(=O)N([C@H](C)CO)C[C@@H]1C`: the cytotoxicity call in test [1] and in test [2] was “inactive” in each case. For the same compound, in test [3], the growth inhibition call was “inactive”.
As for `C[C@@H]1CCCCO[C@H](CN(C)C(=O)Nc2ccc(F)cc2)[C@@H](C)CN([C@H](C)CO)C(=O)c2cc(NC(=O)Cc3ccccc3)ccc2O1`, the cytotoxicity call in test [1] and in test [2] was “inactive” in each case. The growth inhibition call in test [3] is “inactive”.
With `CC(C)NC(=O)N(C)C[C@H]1Oc2cc(-c3ccccc3F)ccc2S(=O)(=O)N([C@@H](C)CO)C[C@@H]1C`, the cytotoxicity call in test [1] and in test [2] was “inactive” in each case. For the same compound, the growth inhibition call in test [3] was “inactive”.
